# Out of some 390,000 compounds screened, about 2,200 (0.56%) were called active. Inconclusive means that the source gave no clear call. Such entries were picked first, then a sample of the others. Calls follow the shape of the dose curve; as a rule, active = well fitted inhibition curve with a large enough effect; inconclusive = small, poorly fitted or top-dose-only effect; inactive = no such curve, though single readings can be large or run the other way. Potencies beside an inconclusive call are fits to weak or partial responses and may not hold up.
# Biological target: Chromobox protein homolog 1 (Homo sapiens) (UniProt P83916)
# Chain of UniProt P83916 (P83916 whole entry, looked up): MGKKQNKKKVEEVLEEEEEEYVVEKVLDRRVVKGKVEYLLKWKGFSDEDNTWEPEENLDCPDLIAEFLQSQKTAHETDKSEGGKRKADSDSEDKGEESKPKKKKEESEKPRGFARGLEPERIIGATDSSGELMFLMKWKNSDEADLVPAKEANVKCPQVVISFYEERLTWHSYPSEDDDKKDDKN
# Assay: HTS for Inhibitors of HP1-beta Chromodomain Interactions with Methylated Histone Tails; also: nearly all actives have a fitted effect of over 70% in size
# Details: AlphaScreen HP1-beta / biotin-H3K9me3 peptide binding; series mostly up to 114 µM; activity change, negative = inhibition: at the top concentration
# Outline: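 AlphaScreen: HP1-beta (50 nM) preformed 30 min with biotin-H3(1-18)K9me3 peptide (50 nM) in PBS pH 7.4, 0.01% Tween-20. Compound added for 30 min at RT, then streptavidin donor/nickel chelate acceptor beads (10 ug/mL) for 30 min.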
# Potency is read from the fitted curve at half-maximal effect; tags tell the direction and shape of the fitted curve.
SMILES,"activity change, negative = inhibition",Potency
CN(C)c1ccc([P+](=O)c2ccc(N(C)C)cc2)cc1,inactive: 6.13%,–
Cc1cc(=O)n(-c2ccccc2)n1C,inactive: 23.8%,–
CCN(CC)c1ccc(CN2CC=C(c3ccc(F)cc3)CC2)cc1,–,active: 44.7 µM
CN(C)c1ccc(NC(=O)CN2C3CCCC2CC(NC(=O)c2ccccc2)C3)cc1 (stereo unspecified),–,"inconclusive: 44.7 µM [inhibitor, partial curve, poor fit]"
c1ccc2c(CCNC3CCCCC3)c[nH]c2c1,–,active: 79.4 µM
OCCN(Cc1ccccc1)Cc1cccc(F)c1,–,"inconclusive: 56.2 µM [inhibitor, partial curve]"
O=C(c1ccccc1F)c1cn(CC(=O)N2CCCC2)c2ccccc12,–,"inconclusive: 8.91 µM [inhibitor, single point]"
O=C(O)c1ccc([N+](=O)[O-])c([N+](=O)[O-])c1,inactive: -12.8%,–
CCOP1(=S)Oc2cc3c(cc2C(C(=O)OC)(C(F)(F)F)O1)OCO3 (stereo unspecified),–,"inconclusive: 15.8 µM [inhibitor, full curve]"
COc1ccc(/C=C2\C(=O)NC(=O)N(CCC3=CCCCC3)C2=O)c(OC)c1,inactive: 17.8%,–
COC(=O)c1ccc(N2CCN(C)CC2)c([N+](=O)[O-])c1,inactive: 11.2%,–
O=C1NC(=O)N(Cc2ccccc2)C(=O)/C1=C\C=C\c1ccco1,–,"inconclusive: 6.31 µM [inhibitor, full curve]"
COc1ccc2[nH]c(C)c(CCNCc3cccnc3)c2c1,–,"inconclusive: 14.1 µM [inhibitor, full curve]"
O=C(C1CCCN(Cc2ccc(Cl)cc2)C1)N1CCCCC1 (stereo unspecified),–,"inconclusive: 35.5 µM [inhibitor, partial curve]"
COC(=O)c1ccccc1OC(=O)c1ccc(Br)o1,inactive: 50.3%,–
COc1cc(OC)c(OC)cc1CNCCc1cccc(F)c1,–,"inconclusive: 28.2 µM [inhibitor, partial curve]"
COc1ccc(CN2CCN(c3ccccc3)CC2)c(C)c1C,–,"inconclusive: 31.6 µM [inhibitor, full curve]"
COc1cc(OC)c(OC)cc1CN1CCN(C(=O)Cc2ccccc2)CC1,–,"inconclusive: 14.1 µM [inhibitor, partial curve, poor fit]"
C=CCn1c(CSc2ccccc2[N+](=O)[O-])n[nH]c1=S,–,"inconclusive: 22.4 µM [inhibitor, partial curve, poor fit]"
O=C1NC(=O)N(c2cccc(Cl)c2)C(=O)/C1=C\c1ccc(Sc2nc3ccccc3[nH]2)o1,–,"inconclusive: 56.2 µM [inhibitor, partial curve, poor fit]"
CN1CCN(Cc2ccc3ccccc3c2)CC1,–,"inconclusive: 15.8 µM [inhibitor, full curve, poor fit]"

# Reference: PubChem BioAssay AID540317 (National Center for Advancing Translational Sciences (NCATS), 2011)
